# Among all 150,000 compounds or so, about 540 (0.36%) showed an effect of 50% or more. This is one part of the list.
# Tested on: Plasmodium falciparum
# Experiment: Primary screen in NF54 nanoGlo assay, in single point, at 2uM, 72h; a lower Z score goes with more inhibition
# Type: functional, Erythrocyte
# Details: timepoint 72 hour
Compound,% Inhibition [%],Z score
O=C(c1ccc2[nH]cnc2c1)N1CCN(Cc2ccc(S(=O)(=O)F)cc2)CC1,-11,1.6
CN(C)[C@@H]1CCC[C@H]1NC(=O)c1ccc(C(C)(F)F)nc1,7,-1.36
CCCN(CCO)S(=O)(=O)c1ccc(C#N)c(C(F)(F)F)c1,-14,2.6
COc1cccc([C@H]2CN(C(=O)c3cccc(C)c3)[C@@H]3C4CCN(CC4)[C@H]23)c1,-1,0.19
O=C(c1cn2ccnc(-c3ccccc3)c2n1)N1CCC2(CC1)OCCO2,34,-3.82
O[C@@]12C[C@@H]([C@H]3CO[C@@H]1O3)n1nnnc1N2,9,-1.07
O=C(O)[C@@H]1CC2(CCN(c3ccc(Cl)cn3)CC2)CN1,0,0.05
O=C(c1ccc(Cl)c(S(=O)(=O)N2CCCCCC2)c1)N1CCC2(CC1)OCCO2,2,-0.22
COc1ccc(-n2nc(C)c3sc(N(C)CC(=O)N4CCC5(CC4)OCCO5)nc32)cc1,-15,2.09
Cc1[nH]c2c(C)ccc(C)c2c1CC(=O)N1CCN(C[C@@H](O)CN(C)C)CC1,-5,0.78
CC(=O)C1(c2ccccc2)CCN(C(=O)c2cn(Cc3ccccc3F)nn2)CC1,-5,0.8
Cc1noc([C@H](C)N2CCCN(C(=O)COc3ccccc3)CC2)n1,-8,1.52
Cc1cnn(C[C@H](C)NCc2nc(C)c(C)o2)c1,-3,0.3
Cc1cc(CC(C)NC2CCCC2(C)C)n[nH]1 (stereo unspecified),-6,0.59
O=C(NCc1cccnc1)NC1CCCCC1,-3,0.35
COC(C)(C)C(=O)N1C[C@H](c2cc(F)cc(F)c2)[C@@H]2[C@H]1C1CCN2CC1,-4,0.8
CO[C@H]1CN(C)C[C@@H]1NS(=O)(=O)c1cc2oc(=O)[nH]c2cc1C,0,0
CN1C(=O)C2(CCN(Cc3cc4ccccc4o3)CC2)c2ccccc21,-13,2.36
Brc1cc(CN2CC[C@]3(CCOC3)C2)c2ncccc2c1,-6,0.68
COc1ccccc1C(O)CNC(C)C1CC1 (stereo unspecified),-1,0.11
O=C(Cc1ccccn1)N1CCN(Cc2cc(Cl)ccc2F)CC1,-9,1.12
COc1ccc(N2C(=O)NC(=O)[C@H](C(c3ccc(F)cc3)c3ccc(F)cc3)C2=O)cc1,22,-2.77
Cc1ccc(N(C)C(=O)Oc2cc3ccccc3cc2OC(=O)N(C)c2ccc(C)cc2)cc1,-4,0.66
CC(C)=CCC[C@H](C)NCCc1ccc(O)cc1,9,-1.3
CC(=O)N1CCC[C@H](N(CCN(C)C(=O)Cc2ccc(F)cc2)C2CCOCC2)C1,1,-0.09
COc1cccc([C@H]2CN(C(=O)CN3CCOCC3)[C@@H]3C4CCN(CC4)[C@H]23)c1,-2,0.29
COc1ncc(Cn2cnc(C#N)n2)c(C)n1,-1,0.26

Compound,% Inhibition [%],Z score
CC(C)NC(=O)CN1[C@@H]2CC[C@H]1[C@@H](NC(=O)c1cccc(-n3ccnn3)c1)C2,11,-1.46
O=S(=O)(c1cccnc1)N1C2CCC1c1ccccc12,-10,1.28
O=C(CCc1nc(C2=CCN(Cc3ccc(Cl)cc3)CC2)no1)NCc1ccc2c(c1)OCO2,-11,1.56
C[C@@H](CN1CCCCC1)NC(=O)c1ccc(N)cn1,5,-0.67
COc1cc(S(=O)(=O)F)ccc1OCc1noc(C2CC2)n1,2,-0.29
CN1CCN(C(=O)COc2ccc(S(=O)(=O)N3CCCC3)cc2)CC1,-6,0.72
O=C(NC1CCCCC1)Oc1c(Cl)cc2oc(=O)sc2c1Cl,-7,0.92
O=C(Nc1cc(F)cc2c1OCOC2)N1CCN(CCO[C@@H](c2ccccc2)c2ccc(F)c(F)c2)CC1,2,-0.48
CC(C)=CCC[C@H](C)N[C@H]1CC[C@H](O)CC1,9,-1.18
CN1CCC2(CCCN2C(=O)Cc2ccc(S(=O)(=O)F)cc2)CC1,-1,0.11
O=C(Cc1ccc(F)cc1)NCC#CCN1CCCC1,-7,1.3
c1cc(-c2ccc(-c3ccc4c(c3)CNCC4)cc2)[nH]n1,-4,0.81
CN1C[C@H]2CCC(Nc3cc(C4CC4)ccn3)[C@H]2C1 (stereo partly specified),-3,0.69
CCCc1nc(C)cc(N2C[C@H]3c4cccc(OC)c4OC[C@@]3(C(=O)O)C2)n1,0,0.05
CCCN1CCN(C(=O)Cc2ccc3c(c2)OCO3)[C@H]2CS(=O)(=O)C[C@H]21,1,-0.14
Cc1ccc2c(n1)N(C)[C@H](CO)CCN(C1CCCCC1)C2,-9,1.74
OC[C@H]1CC[C@@H](NC2CCCC(C(F)(F)F)C2)CC1 (stereo partly specified),-7,1.08
C[C@@H](Cc1c(Cl)cccc1Cl)NC(=O)NCCO,-1,0.16
CCOC1CC(NC2CCC(O)(C(F)(F)F)CC2)C12CCC2 (stereo unspecified),-9,1.16
COc1ccc([C@H]2C[C@H]3CC[C@@H](C2)N3Cc2cccc(O)c2)cc1,10,-1.4
Cn1c(=O)oc2cc(-c3csc(-c4ccccc4)n3)ccc21,-11,1.69
CCOc1cc(N2CCN3CCOC[C@]3(CO)C2)nc(C)n1,-1,0.13
COc1ccc(NC(=O)C2CC3CCC2N3C(=O)C2CCC(F)(F)CC2)cn1 (stereo unspecified),0,-0.04
CC1CC(NC(=O)C2(N(C)C)CCC(c3ccccc3)CC2)CCO1 (stereo unspecified),-3,0.57
CCn1nccc1CNc1ccc2oc(=O)[nH]c2c1,-10,1.02
CCc1nsc(N[C@@H]2CNC(=O)C2)n1,-7,0.96
